Data published in publication PMC9911399, “Two distinct binding modes provide the RNA-binding protein RbFox with extraordinary sequence specificity”.
Substitutions are numbered along the chain they refer to; changes in the protein carry UniProt numbers. The list shows a part of the results.

T1: RBFOX1 RRM RbFoxmut (Fox-RRM*) (Homo sapiens, UniProt Q9NWB1 109-208, R118D;E147R;N151S;E152T)
T1 sequence: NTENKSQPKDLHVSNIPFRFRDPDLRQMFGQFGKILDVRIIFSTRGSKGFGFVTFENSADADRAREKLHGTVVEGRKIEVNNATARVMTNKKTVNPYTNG

B1: UACAGUA (DNA:RNA)
RNA: GGGAGACCGGAAUUCAGAUUGUCCUACAGUAUUAAAUCCCGUCGUAGCCACCA
DNA 1: CAATCTGAATTCCGGTCTCCC
DNA 2: TGGTGGCTACGACGGGATT
B2: UUGCAGG (DNA:RNA)
RNA: B1 RNA with A26U, C27G, A28C, G29A, U30G, A31G
DNA 1: CAATCTGAATTCCGGTCTCCC
DNA 2: TGGTGGCTACGACGGGATT
B3: CCGGAUU (DNA:RNA)
RNA: B1 RNA with U25C, A26C, C27G, A28G, G29A, A31U
DNA 1: CAATCTGAATTCCGGTCTCCC
DNA 2: TGGTGGCTACGACGGGATT
B4: CCAGUCA (DNA:RNA)
RNA: B1 RNA with U25C, A26C, C27A, A28G, G29U, U30C
DNA 1: CAATCTGAATTCCGGTCTCCC
DNA 2: TGGTGGCTACGACGGGATT
B5: CACCACC (DNA:RNA)
RNA: B1 RNA with U25C, A28C, G29A, U30C, A31C
DNA 1: CAATCTGAATTCCGGTCTCCC
DNA 2: TGGTGGCTACGACGGGATT
B6: GGGCCUA (DNA:RNA)
RNA: B1 RNA with U25G, A26G, C27G, A28C, G29C
DNA 1: CAATCTGAATTCCGGTCTCCC
DNA 2: TGGTGGCTACGACGGGATT
B7: UAGCACU (DNA:RNA)
RNA: B1 RNA with C27G, A28C, G29A, U30C, A31U
DNA 1: CAATCTGAATTCCGGTCTCCC
DNA 2: TGGTGGCTACGACGGGATT
B8: CCUCUCC (DNA:RNA)
RNA: GGGAGACCGGAAUUCAGAUUGUCCCCUCUCCUUAAAUCCCGUCGUAGCCACCA
DNA 1: CAATCTGAATTCCGGTCTCCC
DNA 2: TGGTGGCTACGACGGGATT
B9: UAUCGGG (DNA:RNA)
RNA: B1 RNA with C27U, A28C, U30G, A31G
DNA 1: CAATCTGAATTCCGGTCTCCC
DNA 2: TGGTGGCTACGACGGGATT
B10: CGGCACC (DNA:RNA)
RNA: B8 RNA with C26G, U27G, U29A
DNA 1: CAATCTGAATTCCGGTCTCCC
DNA 2: TGGTGGCTACGACGGGATT
B11: CACACAU (DNA:RNA)
RNA: B1 RNA with U25C, G29C, U30A, A31U
DNA 1: CAATCTGAATTCCGGTCTCCC
DNA 2: TGGTGGCTACGACGGGATT
B12: CUCCUUG (DNA:RNA)
RNA: B8 RNA with C26U, U27C, C30U, C31G
DNA 1: CAATCTGAATTCCGGTCTCCC
DNA 2: TGGTGGCTACGACGGGATT
B13: CGACUAC (DNA:RNA)
RNA: B8 RNA with C26G, U27A, C30A
DNA 1: CAATCTGAATTCCGGTCTCCC
DNA 2: TGGTGGCTACGACGGGATT
B14: AAGCCCC (DNA:RNA)
RNA: B8 RNA with C25A, C26A, U27G, U29C
DNA 1: CAATCTGAATTCCGGTCTCCC
DNA 2: TGGTGGCTACGACGGGATT
B15: AGGCACG (DNA:RNA)
RNA: B8 RNA with C25A, C26G, U27G, U29A, C31G
DNA 1: CAATCTGAATTCCGGTCTCCC
DNA 2: TGGTGGCTACGACGGGATT
B16: CCUGGUC (DNA:RNA)
RNA: B8 RNA with C28G, U29G, C30U
DNA 1: CAATCTGAATTCCGGTCTCCC
DNA 2: TGGTGGCTACGACGGGATT
B17: GGAAAGC (DNA:RNA)
RNA: B8 RNA with C25G, C26G, U27A, C28A, U29A, C30G
DNA 1: CAATCTGAATTCCGGTCTCCC
DNA 2: TGGTGGCTACGACGGGATT
B18: UUUAGGC (DNA:RNA)
RNA: B1 RNA with A26U, C27U, U30G, A31C
DNA 1: CAATCTGAATTCCGGTCTCCC
DNA 2: TGGTGGCTACGACGGGATT
B19: GGUCUUG (DNA:RNA)
RNA: B8 RNA with C25G, C26G, C30U, C31G
DNA 1: CAATCTGAATTCCGGTCTCCC
DNA 2: TGGTGGCTACGACGGGATT
B20: GAUCCCG (DNA:RNA)
RNA: B8 RNA with C25G, C26A, U29C, C31G
DNA 1: CAATCTGAATTCCGGTCTCCC
DNA 2: TGGTGGCTACGACGGGATT
B21: UUGCUUG (DNA:RNA)
RNA: B8 RNA with C25U, C26U, U27G, C30U, C31G
DNA 1: CAATCTGAATTCCGGTCTCCC
DNA 2: TGGTGGCTACGACGGGATT
B22: GGAAAGA (DNA:RNA)
RNA: B1 RNA with U25G, A26G, C27A, G29A, U30G
DNA 1: CAATCTGAATTCCGGTCTCCC
DNA 2: TGGTGGCTACGACGGGATT
B23: UCAACGA (DNA:RNA)
RNA: B1 RNA with A26C, C27A, G29C, U30G
DNA 1: CAATCTGAATTCCGGTCTCCC
DNA 2: TGGTGGCTACGACGGGATT
B24: CGGAAUU (DNA:RNA)
RNA: B1 RNA with U25C, A26G, C27G, G29A, A31U
DNA 1: CAATCTGAATTCCGGTCTCCC
DNA 2: TGGTGGCTACGACGGGATT
B25: UGUAACG (DNA:RNA)
RNA: B8 RNA with C25U, C26G, C28A, U29A, C31G
DNA 1: CAATCTGAATTCCGGTCTCCC
DNA 2: TGGTGGCTACGACGGGATT
B26: UGCACGG (DNA:RNA)
RNA: B1 RNA with A26G, G29C, U30G, A31G
DNA 1: CAATCTGAATTCCGGTCTCCC
DNA 2: TGGTGGCTACGACGGGATT
B27: GAGGAUC (DNA:RNA)
RNA: B1 RNA with U25G, C27G, A28G, G29A, A31C
DNA 1: CAATCTGAATTCCGGTCTCCC
DNA 2: TGGTGGCTACGACGGGATT
B28: CAAACGA (DNA:RNA)
RNA: B1 RNA with U25C, C27A, G29C, U30G
DNA 1: CAATCTGAATTCCGGTCTCCC
DNA 2: TGGTGGCTACGACGGGATT
B29: GCACAGU (DNA:RNA)
RNA: B8 RNA with C25G, U27A, U29A, C30G, C31U
DNA 1: CAATCTGAATTCCGGTCTCCC
DNA 2: TGGTGGCTACGACGGGATT
B30: UCCAGUA (DNA:RNA)
RNA: B1 RNA with A26C
DNA 1: CAATCTGAATTCCGGTCTCCC
DNA 2: TGGTGGCTACGACGGGATT
B31: CCCAAGU (DNA:RNA)
RNA: B8 RNA with U27C, C28A, U29A, C30G, C31U
DNA 1: CAATCTGAATTCCGGTCTCCC
DNA 2: TGGTGGCTACGACGGGATT

Each binder was assayed against T1, RBFOX1 RRM RbFoxmut (Fox-RRM*) (assay: EMSA; HiTS-Eq, 1 nM pool, 10 min; buffer printed only for the single-RNA assays: 10 mM Tris pH 7.5, 150 mM NaCl, 3.4 mM EDTA, 0.001% NP-40, 30 C). Conditions: tags: His6 N-terminal (pET28a); label: 5' 32P.
Procedure, shortened: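 Relative association constants, normalised to the cognate motif, were derived by comparing read counts of each RNA species with those of the control reaction. The RNA sequenced was the free fraction, separated by 8% native PAGE after a 10 min equilibration in 50 µL of 1 nM 5′-radiolabelled RNA (7 randomized nucleotides) with increasing concentrations of purified wild-type or mutant RbFox RRM.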

Compared with B1, B2 is higher in binding signal: 0.0917 KA relative to UGCAUGU for the first, 0.129 KA relative to UGCAUGU for the second.

Compared with B3, B4 is lower in binding signal: 0.0781 KA relative to UGCAUGU for the first, 0.0567 KA relative to UGCAUGU for the second.

First: B5
Second: B6
The binding signal of the first is lower: 0.0571 KA relative to UGCAUGU for the first, 0.0793 KA relative to UGCAUGU for the second.

Compared with B7, B8 is lower in binding signal: 0.0669 KA relative to UGCAUGU for the first, 0.0483 KA relative to UGCAUGU for the second.

Compared with B9, B10 is lower in binding signal: 0.105 KA relative to UGCAUGU for the first, 0.0869 KA relative to UGCAUGU for the second.

First: B11
Second: B12
The binding signal of the first is lower: 0.0922 KA relative to UGCAUGU for the first, 0.118 KA relative to UGCAUGU for the second.

First: B13
Second: B14
The binding signal of the first is higher: 0.111 KA relative to UGCAUGU for the first, 0.0791 KA relative to UGCAUGU for the second.

Compared with B15, B16 is lower in binding signal: 0.237 KA relative to UGCAUGU for the first, 0.166 KA relative to UGCAUGU for the second.

First: B17
Second: B18
The binding signal of the first is lower: 0.0562 KA relative to UGCAUGU for the first, 0.0793 KA relative to UGCAUGU for the second.

Compared with B19, B20 is lower in binding signal: 0.368 KA relative to UGCAUGU for the first, 0.0748 KA relative to UGCAUGU for the second.

First: B21
Second: B22
The binding signal of the first is higher: 0.503 KA relative to UGCAUGU for the first, 0.0538 KA relative to UGCAUGU for the second.

First: B23
Second: B24
The binding signal of the first is lower: 0.0449 KA relative to UGCAUGU for the first, 0.0639 KA relative to UGCAUGU for the second.

Compared with B25, B26 is higher in binding signal: 0.157 KA relative to UGCAUGU for the first, 0.308 KA relative to UGCAUGU for the second.

First: B27
Second: B28
The binding signal of the first is higher: 0.0977 KA relative to UGCAUGU for the first, 0.0408 KA relative to UGCAUGU for the second.

Compared with B29, B30 is higher in binding signal: 0.0768 KA relative to UGCAUGU for the first, 0.135 KA relative to UGCAUGU for the second.

B31 was tested, and the binding signal was 0.091 KA relative to UGCAUGU.
